Laboratory results reported in article PMC4336329 (PLoS ONE, 2015).
The campaign covered roughly 310,000 compounds. About 14,000 (4.5%) showed an effect of 50% or more. The effect is printed as a negative number. The list shows a part of the results.

molecular target: human ether-à-go-go-related gene (hERG) potassium channel (human, UniProt Q12809); experiment: primary screen, population patch clamp on CHO cells stably expressing hERG
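Also: peak tail current of the secondary pulse compared with the same well before compound.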

Chain of human ether-à-go-go-related gene (hERG) potassium channel (Q12809 whole entry, looked up): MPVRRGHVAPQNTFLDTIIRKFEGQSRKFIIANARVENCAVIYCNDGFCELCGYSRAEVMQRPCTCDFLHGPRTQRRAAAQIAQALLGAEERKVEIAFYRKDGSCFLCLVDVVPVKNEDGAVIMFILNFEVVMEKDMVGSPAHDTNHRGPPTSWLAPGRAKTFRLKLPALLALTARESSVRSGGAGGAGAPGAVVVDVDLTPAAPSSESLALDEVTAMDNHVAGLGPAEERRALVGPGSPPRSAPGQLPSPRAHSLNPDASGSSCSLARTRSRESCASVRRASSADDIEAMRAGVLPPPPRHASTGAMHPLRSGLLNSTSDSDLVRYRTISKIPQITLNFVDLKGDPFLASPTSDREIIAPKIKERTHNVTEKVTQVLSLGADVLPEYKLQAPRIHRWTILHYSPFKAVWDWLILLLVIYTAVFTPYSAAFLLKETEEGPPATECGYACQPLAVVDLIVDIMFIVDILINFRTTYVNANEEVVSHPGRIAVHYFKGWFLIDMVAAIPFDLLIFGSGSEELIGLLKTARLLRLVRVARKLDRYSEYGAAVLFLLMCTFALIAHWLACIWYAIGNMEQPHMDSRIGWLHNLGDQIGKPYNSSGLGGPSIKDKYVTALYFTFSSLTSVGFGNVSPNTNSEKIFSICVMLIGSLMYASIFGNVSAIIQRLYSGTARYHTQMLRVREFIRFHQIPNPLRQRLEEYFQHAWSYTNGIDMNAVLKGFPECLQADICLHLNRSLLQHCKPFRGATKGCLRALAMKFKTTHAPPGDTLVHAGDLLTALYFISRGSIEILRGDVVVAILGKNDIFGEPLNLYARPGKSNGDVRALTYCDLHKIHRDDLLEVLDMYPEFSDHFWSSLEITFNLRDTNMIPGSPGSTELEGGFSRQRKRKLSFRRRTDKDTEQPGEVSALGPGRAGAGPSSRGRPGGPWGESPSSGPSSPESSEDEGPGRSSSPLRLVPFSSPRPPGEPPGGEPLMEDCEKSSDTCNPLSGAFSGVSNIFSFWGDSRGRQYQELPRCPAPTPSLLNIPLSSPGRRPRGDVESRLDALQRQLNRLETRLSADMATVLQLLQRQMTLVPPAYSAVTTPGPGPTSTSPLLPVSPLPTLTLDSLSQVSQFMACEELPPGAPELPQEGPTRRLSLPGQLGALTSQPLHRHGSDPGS

Question: How did the “hERG current change (%, negative = inhibition) at 10uM” value turn out when `Cc1ccc(S(=O)(=O)N2CCN(S(C)(=O)=O)CC2)cc1` was run?
Answer: Its value is -4.95%.

Question: For `CCC(C)NS(=O)(=O)c1ccc(NS(=O)(=O)c2ccc(F)cc2)cc1` (stereo not drawn), which “hERG current change (%, negative = inhibition) at 10uM” value is on record?
Answer: The value was -0.423%.

Question: For `COc1ccc(NC(=O)CN(C)S(=O)(=O)c2ccc3c(c2)OCCO3)c2ncccc12`, which “hERG current change (%, negative = inhibition) at 10uM” value is on record?
Answer: Its value is 2.91%.

Question: Which “hERG current change (%, negative = inhibition) at 10uM” value does the source give for `Cn1c(=O)cc(N)n(Cc2ccccc2)c1=O` here?
Answer: Its value is 16.5%.

Question: With `O=S(=O)(Nc1ccc(Br)cn1)c1ccc(Cl)s1` as the compound, how does the “hERG current change (%, negative = inhibition) at 10uM” value read?
Answer: The value was 10.2%.

Question: With `CCC(C)(C)NC(=O)C(c1ccccc1Cl)N(Cc1cccnc1)C(=O)CCC(=O)Nc1cc(C)on1` (stereo not drawn) as the compound, how does the “hERG current change (%, negative = inhibition) at 10uM” value read?
Answer: Its value is 7.68%.

Question: Which “hERG current change (%, negative = inhibition) at 10uM” value does the source give for `CN(C)/C=N/c1nc2nccc(-c3cccc(Cl)c3)n2n1` here?
Answer: Its value is 15.4%.

Question: For `CN(C)c1nc(OCCNC(=O)Nc2ccc(Cl)cc2)nc(N(C)C)n1`, which “hERG current change (%, negative = inhibition) at 10uM” value is on record?
Answer: The value was 11.9%.

Question: `O=c1cc(NCc2ccc3c(c2)OCO3)[nH]c(=O)n1-c1ccc(Cl)cc1` was tested. Which “hERG current change (%, negative = inhibition) at 10uM” value did it give?
Answer: Its value is -0.329%.

Question: For `O=C(/C=C/c1ccccc1)Nc1cccnc1`, which “hERG current change (%, negative = inhibition) at 10uM” value is on record?
Answer: Its value is -26%.

Question: With `COc1cc(C(=O)NCCCNC(=O)c2cc(OC)c(OC)c(OC)c2)cc(OC)c1OC` as the compound, how does the “hERG current change (%, negative = inhibition) at 10uM” value read?
Answer: Its value is 7.38%.

Question: Which “hERG current change (%, negative = inhibition) at 10uM” value does the source give for `O=C(NC1CCCC1)c1ccc(CNc2c(N3CCOCC3)c(=O)c2=O)cc1` here?
Answer: Its value is 12.9%.

Question: With `C#CCn1c(=NC(=O)c2cccs2)sc2cccc(OCC)c21` as the compound, how does the “hERG current change (%, negative = inhibition) at 10uM” value read?
Answer: The value was 16%.

Question: Which “hERG current change (%, negative = inhibition) at 10uM” value does the source give for `CN(CC(=O)Nc1ccc(F)c(F)c1F)C(=O)CN1C(=O)C2CCCCC2C1=O` (stereo not drawn) here?
Answer: The value was -18.2%.

Question: With `c1cc(-c2n[nH]c(-c3ccncc3)n2)ccn1` as the compound, how does the “hERG current change (%, negative = inhibition) at 10uM” value read?
Answer: The value was 14.1%.

Question: Which “hERG current change (%, negative = inhibition) at 10uM” value does the source give for `COCC(=O)Nc1ccc(C(C)C)cc1` here?
Answer: Its value is -1.68%.

Question: How did the “hERG current change (%, negative = inhibition) at 10uM” value turn out when `CCOC(=O)C1(Cc2cccc(F)c2)CCN(C(=O)c2cnccn2)CC1` was run?
Answer: Its value is 1.05%.

Question: With `COc1ccc(C(=O)Nc2cc(OCc3ccccc3)c(Cl)cc2Cl)cc1` as the compound, how does the “hERG current change (%, negative = inhibition) at 10uM” value read?
Answer: Its value is 15.7%.

Question: How did the “hERG current change (%, negative = inhibition) at 10uM” value turn out when `Cc1onc(-c2c(Cl)cccc2Cl)c1C(=O)NNC(=O)c1c(-c2c(Cl)cccc2Cl)noc1C` was run?
Answer: Its value is 13.9%.

Question: `S=C(NC1CCCC1)N1CCN(c2ccc(Cl)cc2)CC1` was tested. Which “hERG current change (%, negative = inhibition) at 10uM” value did it give?
Answer: The value was -13.6%.

Question: How did the “hERG current change (%, negative = inhibition) at 10uM” value turn out when `Cc1nn2c3ccccc3n(CCN3CCCCC3)c2nc1=O` was run?
Answer: Its value is -13.1%.

Question: Which “hERG current change (%, negative = inhibition) at 10uM” value does the source give for `Cc1ccc(S(=O)(=O)N(C)CCCC(=O)N2CCN(C=O)CC2)cc1` here?
Answer: The value was -3.96%.

Question: Which “hERG current change (%, negative = inhibition) at 10uM” value does the source give for `Cc1sc2nc(CC(N)=O)[nH]c(=O)c2c1-c1ccccc1` here?
Answer: The value was 13.1%.

Question: For `COc1ccccc1N1CCN(S(=O)(=O)c2cccs2)CC1`, which “hERG current change (%, negative = inhibition) at 10uM” value is on record?
Answer: The value was -19.6%.

Question: Which “hERG current change (%, negative = inhibition) at 10uM” value does the source give for `CC(C)(C)N1CC(c2nc3ccccc3n2Cc2ccc(Cl)cc2)CC1=O` (stereo not drawn) here?
Answer: Its value is -42.1%.

Question: For `O=C(COC(=O)c1ccc(S(=O)(=O)Nc2ccccc2)cc1)NCCN1C(=O)CSC1=O`, which “hERG current change (%, negative = inhibition) at 10uM” value is on record?
Answer: The value was -2.47%.

Question: How did the “hERG current change (%, negative = inhibition) at 10uM” value turn out when `COc1ccc(OCC(=O)OCC(=O)N2CC(=O)Nc3ccccc32)cc1` was run?
Answer: The value was -3.16%.

Question: `CC(=O)Nc1c(S(=O)(=O)c2ccccc2)c2nc3ccccc3nc2n1Cc1ccccc1` was tested. Which “hERG current change (%, negative = inhibition) at 10uM” value did it give?
Answer: Its value is 1.39%.

Question: Which “hERG current change (%, negative = inhibition) at 10uM” value does the source give for `Cc1nnc(-c2cccc(Br)c2)c2cn(-c3ccccc3)nc12` here?
Answer: Its value is -24.4%.

Question: How did the “hERG current change (%, negative = inhibition) at 10uM” value turn out when `O=C(CN(CC1CCCO1)C(=O)CNS(=O)(=O)c1ccccc1)NCc1ccc(F)cc1` (stereo not drawn) was run?
Answer: The value was 11.9%.

Question: How did the “hERG current change (%, negative = inhibition) at 10uM” value turn out when `Cn1cc(C[C@H](NC(=O)OC(C)(C)C)C(=O)N[C@@H](CO)Cc2ccccc2)c2ccccc21` was run?
Answer: The value was -8.2%.

Question: `C/C(=N\OCC(=O)Nc1ccc(F)c(F)c1F)c1cc2ccccc2o1` was tested. Which “hERG current change (%, negative = inhibition) at 10uM” value did it give?
Answer: Its value is 8.09%.

Question: Which “hERG current change (%, negative = inhibition) at 10uM” value does the source give for `O=C(CSc1nc2ccsc2c(=O)n1NC(=O)c1ccccc1)NCc1ccco1` here?
Answer: The value was 4.37%.

Question: `CCCCN(C(=O)c1c(CC)noc1C)c1c(N)n(CCCC)c(=O)[nH]c1=O` was tested. Which “hERG current change (%, negative = inhibition) at 10uM” value did it give?
Answer: Its value is 7.47%.

Question: With `CCOC(=O)c1c(C)n(C)c2ccc(OC(C)C(=O)OC)cc12` (stereo not drawn) as the compound, how does the “hERG current change (%, negative = inhibition) at 10uM” value read?
Answer: Its value is -10%.

Question: `Nc1ncnc2c1ncn2C1CCC(CO)C(O)C1` (stereo not drawn) was tested. Which “hERG current change (%, negative = inhibition) at 10uM” value did it give?
Answer: Its value is 7.52%.

Question: `CCOc1cc(NC(=S)NCc2ccco2)c(OCC)cc1NC(=O)CC` was tested. Which “hERG current change (%, negative = inhibition) at 10uM” value did it give?
Answer: The value was -0.376%.

Question: `Cc1cc(C(=O)N/N=C/c2cccs2)no1` was tested. Which “hERG current change (%, negative = inhibition) at 10uM” value did it give?
Answer: The value was 1.55%.

Question: How did the “hERG current change (%, negative = inhibition) at 10uM” value turn out when `O=c1c(-c2ccc3c(c2)OCCO3)coc2c(CN3CCOCC3)c(O)ccc12` was run?
Answer: The value was -0.591%.

Question: For `CC(C)CN(C)C(=O)CC1C(=O)NCCN1C` (stereo not drawn), which “hERG current change (%, negative = inhibition) at 10uM” value is on record?
Answer: Its value is 18.3%.

Question: With `O=C(O[C@@H]1[C@H](Cc2ccccc2)NS(=O)(=O)[C@H]2C[C@@H]3C=C[C@]12O3)c1ccccc1Br` as the compound, how does the “hERG current change (%, negative = inhibition) at 10uM” value read?
Answer: Its value is 12%.

Question: Which “hERG current change (%, negative = inhibition) at 10uM” value does the source give for `Cc1cc(C)n(-c2ccc(NC(=O)C3CCCCN3C(=O)c3ccoc3)cc2)n1` (stereo not drawn) here?
Answer: Its value is -2.37%.

Question: With `CCCCn1c(=O)[nH]c(=O)c2c1nc(-c1ccc(OC(F)F)c(OC)c1)n2C` as the compound, how does the “hERG current change (%, negative = inhibition) at 10uM” value read?
Answer: The value was 17.1%.

Question: Which “hERG current change (%, negative = inhibition) at 10uM” value does the source give for `CCS(=O)c1ccccc1C(=O)OCC(=O)Nc1cccc(S(=O)(=O)N2CCCCC2)c1` (stereo not drawn) here?
Answer: Its value is -23.3%.

Question: Which “hERG current change (%, negative = inhibition) at 10uM” value does the source give for `Nc1cc(=O)[nH]c(SCC(=O)N2CCc3ccccc3C2)n1` here?
Answer: The value was 12.3%.

Question: How did the “hERG current change (%, negative = inhibition) at 10uM” value turn out when `O=C(CN1C(=O)NC2(CCOc3ccccc32)C1=O)Nc1ccc(F)c(F)c1F` (stereo not drawn) was run?
Answer: The value was -11%.

Question: For `COc1ccc(OC)c(NC(=O)C2CCN(c3cc(-c4ccccc4)nc4ncnn34)CC2)c1`, which “hERG current change (%, negative = inhibition) at 10uM” value is on record?
Answer: The value was -10.8%.

Question: `Cc1nn2c(N3CCOCC3)cc(C(C)C)nc2c1-c1ccccc1` was tested. Which “hERG current change (%, negative = inhibition) at 10uM” value did it give?
Answer: The value was 9.66%.
